# Test results published in the supplement of paper PMC11417369.
# Some of the results follow.
# Tested on: PF3D7_0420300 AP2 domain 1 (GST-tagged)
# Assay: gcPBM binding intensity (ln(normalized median fluorescence intensity)); higher = stronger DNA binding
# Summary of the method: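 DNA-binding domains from P. falciparum, fused to GST and produced in E. coli, were put on an Agilent 4 × 180k double-stranded probe array for 1 h in 1× PBS holding 1% milk, 0.2 mg/ml BSA, 0.5% salmon testes DNA and 0.03% Triton X-100. Probes were primer-extended, 36 bp long and drawn from intergenic genomic regions, with negative controls included. After Alexa488 anti-GST antibody detection and a 488 nm scan, binding intensity was set as the highest Masliner-normalised natural-log median intensity across replicate spots of either probe orientation.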
row,Sequence,gcPBM binding intensity (ln)
1,ATTTTAATTTTTTAAGTATTATATGAATATTTATTA [TGCATGCA_negctrl_site142],8.94
2,TTACTTTAACCTTCTCGTACTTATTTACTTTATTCT [XGTACX_site7801],9.7
3,TTTCAAAGGAAATGGTGTACACAATTTTTCCTTTTT [XGTACX_site2340],8.95
4,TTTTATTATTCTTCTCTCTTATATATATATATATAT [CACACA_negctrl_site646],9.39
5,ATAACATAGGCAATCACACATATCATTAAGGTGTCA [CACACA_site5233],9.58
6,ACTGTGGTATAAAGTTGTACATGTTTTTATATATTT [XGTACX_site5257],9.59
7,TACTTTTATATGAATACACACAGGAATATATATATG [CACACA_site3568],9.48
8,ATTTACATAAACGTCTGTACTAATATACAATTTTCT [XGTACX_site1700],9.3
9,CATAAAATTGTATTTTGTACACATTTTGTATACATT [XGTACX_site5705],9.23
10,TATATATAGAAACACACACACATATATATATATATT [CACACA_site4115],9.91
11,TATTTTATTTCAAATCTTAATAATTGTAATTCTTCA [XGTACX_negctrl_site442],8.91
12,TGTGTAATACATAATACACACATGTATATGTCGCAT [CACACA_site4757],9.43
13,TTTTAATTAGAAATCATACACACATATATATATATA [CACACA_site174],9.26
14,ATTTTTAAAATAAATACATGCATATATTTATATGTT [TGCATGCA_site394],9.21
15,AAAAAAAAAGAGGCGTGTACATATATAATTTAAATT [XGTACX_site6827],9.63
16,TGTTCTAATATTTGTTGTACATTTACATTTCTCTCT [XGTACX_site2585],9.46
17,TTATTAAAGTATAACTGTACATGCGAGTAAAAGAAT [XGTACX_site7388],9.63
18,ATAATAGAAACAAACAGTACACATACCTAAAAGGAA [XGTACX_site8647],9.7
19,AAATAAAACAGACACACACACACATACACAAAAAAA [CACACA_site7753],10.2

row,Sequence,gcPBM binding intensity (ln)
1,TATAAATATGTATATGCATGTGGAATATATAATTAA [TGCATGCA_site226],9.36
2,ATATGAGTATAAAAATGTACGGAGCAACTAAATATA [XGTACX_site620],9.65
3,TGTCACCTATTTTTTTGTACGTATGTCCATTTTTTT [XGTACX_site4368],9.71
4,ATTACAACCACATTGACATGCAAATGTAGAGGGGGA [TGCATGCA_site694],9.67
5,TTAACTTCTTTAAAATGTACATATATTAAATAATAA [XGTACX_site3391],8.8
6,AAAAAATATAGATGCACACACAAAAAAACAAATTAA [CACACA_site6718],9.88
7,TTTATGTAATATACATGTACAGAATATAAAATATAT [XGTACX_site6906],9.15
8,TATTCTTACATCACCTCACACATTTAATATTCCTTA [CACACA_site4693],9.52
9,ATATATATATATCAGAGTACATTCTTTAAAATATAT [XGTACX_site5915],9.14
10,AGATTTTGAAATTATAAAAAAATTTCACTTCATTTA [CACACA_negctrl_site888],8.81
11,GTATTATTATTTTATGCATGTACATTGAATTATATT [TGCATGCA_site34],9.53
12,TATTATATATTTAATAGTACATATAAAATAATAAGG [XGTACX_site4823],9.12
13,TGGTTTATTTATTAAGTGCATAAATGCAATATATAT,9.15
14,TACTATAACCCACATACACACAAAAAAAAAAAAAAA [CACACA_site4454],9.46
15,TTTATTTTTAACAGTGCACACATAACTTAATTATAT [CACACA_site8681],9.39
16,TATACAGATGGACACACACACATAAATAAATATATA [CACACA_site4863],10
17,ATTTATATGAAAATATGTACTTATATAAATTTATTT [XGTACX_site53],9.17
18,AAAAAATAGAATATGGGTACTAAAAAGATACAAACA [XGTACX_site4464],9.67
19,AAATTCGTAATAATGTGTACATAACTATACATAATT [XGTACX_site1717],9.29

row,Sequence,gcPBM binding intensity (ln)
1,GATTATTTCTAAAAAGTGCATATTTAAAAATCTCCT,8.99
2,ATTGTTTTGTAATATGAAAAAATTGTGTAATGTGTC [CACACA_negctrl_site1510],9.39
3,CTAAAAAGAGAAGTGTGTCCTCAAATTAATATAATT [XGTACX_site1057],9.25
4,TTTTTTTTTTTTGAAGTGCATGTTACGATGAACAAA [GTGCAC_site9451],8.85
5,TCTTATATAACGAAAGTAAAATAATATGCTAAGCAT [CACACA_negctrl_site668],8.98
6,TATATAAAAATATACACACACAAATGTATTTATATA [CACACA_site4284],9.59
7,AATGAATATTAAAGGAGTACACATAATAAGTAAGAA [XGTACX_site7354],9.72
8,GAAAAAAAAAAAAATACACACAAATTGGTATAGAAT [CACACA_site380],9.68
9,AAAATAGAGTTGAATGCACACATACAAATTTTTAGG [CACACA_site9188],9.32
10,ATAAATAATTTATTCACACATACAAAAGTTTACAAA [CACACA_site5666],9.21
11,TTATTAAATTCTTTATTTAGCATATACAATAAAAGA [CACACA_negctrl_site1420],8.71
12,TATTCCTATATACAGCGTACAAAAAATAATATGTAT [XGTACX_site8112],9.32
13,GTTATTAAATAATTCACACACATATATATATATATA [CACACA_site2260],9.51
14,TATGGAACACACCTTAATATGTGATAAAATATGATA [GTGCAC_negctrl_site718],9.27
15,AAATATTATGTACGCACACACATTTTTGATATATAA [CACACA_site7755],9.79
16,CGCAACGTGAAAATACGTACACATACATTTTTATAT [XGTACX_site330],9.23
17,TAATCGTTTTATAAATGTACAAAATTGTTATGTTAT [XGTACX_site5147],9.2
18,TTAATACATACATTCACACACACTAAATGTATATTT [CACACA_site4105],9.8
19,GGGGGAAGGTTGAAGGTGCTTGATGGAGAAAAATAT,9.64
